Data: the supplement of paper PMC12645437, “Orthogonal IMiD-Degron Pairs Induce Selective Protein Degradation in Cells” (ACS Chemical Biology, 2025)
The other results are listed elsewhere or left out.

Biological target: no compound (DMSO)
Assay: log2 fold change of degron read counts, EGFP-low vs EGFP+ sorted cells; higher = lower degron-EGFP level without compound (poor expression or instability)
Details: compound: DMSO control; 18 h
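Note: jurkat cells carrying a lentiviral library of mutant zinc finger degrons fused to EGFP plus mCherry, mCherry+ cells FACS sorted, degron abundance counted by next-generation sequencing.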

Sequence | log2 fold change of degron read counts
FECEVCGADFTQKGNLLRHIKL | -2.63
FQCEVCGARFTQKGNLLRHIKL | -0.727
FKCPICGRLFTQKGNLLRHIKL | -0.109
FNCPICGAWFTQKGNLLRHIKL | 0.275
FMCPVCGAYFTQKGNLLRHIKL | 0.589
FHCPICGRSFTQKGNLLRHIKL | -2
FQCPICGAYFTQKGNLLRHIKL | 0.359
FFCDVCGADFTQKGNLLRHIKL | -1.89
FRCPICGHWFTQKGNLLRHIKL | 0.775
LCCNQCGFYCTQKGNLLRHIKL | 1.19
FLCPVCGAIFTQKGNLLRHIKL | 0.643
FVCEQCGAVFTQKGNLLRHIKL | -1.49
FTCNQCGRQFTQKGNLLRHIKL | -1.51
FCCEQCGAIFTQKGNLLRHIKL | -0.633
FACEICGRDFTQKGNLLRHIKL | -1.42
FWCEICGALFTQKGNLLRHIKL | 0.611
FTCNQCGHQFTQKGNLLRHIKL | -0.547
FICDVCGALFTQKGNLLRHIKL | -0.335
FYCNVCGATFTQKGNLLRHIKL | -1.05
FDCNVCGAKFTQKGNLLRHIKL | -1.21
LMCNQCGFSCTQKGNLLRHIKL | -0.04
FQCEICGAYFTQKGNLLRHIKL | -1.09
FFCSVCGHSFTQKGNLLRHIKL | 0.404
FYCPQCGAAFTQKGNLLRHIKL | -0.211
FKCEICGAYFTQKGNLLRHIKL | -2.4

Sequence | log2 fold change of degron read counts
FQCNQCGRQFTQKGNLLRHIKL | -1.6
LVCPICGFWCTQKGNLLRHIKL | 1.64
LTCNQCGFPCTQKGNLLRHIKL | 0.0872
FGCEQCGADFTQKGNLLRHIKL | -2.61
FRCNQCGRNFTQKGNLLRHIKL | -0.165
FQCEICGRTFTQKGNLLRHIKL | -2.44
FKCPICGRIFTQKGNLLRHIKL | -0.822
FHCEICGAVFTQKGNLLRHIKL | -1.15
FRCEVCGACFTQKGNLLRHIKL | -1.59
FYCPICGRWFTQKGNLLRHIKL | 0.264
FSCNQCGRNFTQKGNLLRHIKL | -0.266
FICDQCGAEFTQKGNLLRHIKL | -1.58
FMCNICGAEFTQKGNLLRHIKL | -1.28
FYCNQCGACFTQKGNLLRHIKL | -0.359
LGCPICGFFCTQKGNLLRHIKL | 1.72
FDCPICGHHFTQKGNLLRHIKL | -1.26
FFCPVCGAIFTQKGNLLRHIKL | 0.48
FQCPICGRRFTQKGNLLRHIKL | -0.789
FRCNQCGRFFTQKGNLLRHIKL | 0.398
FCCPQCGAMFTQKGNLLRHIKL | 0.231
FNCNQCGHTFTQKGNLLRHIKL | -1.02
FVCEVCGAWFTQKGNLLRHIKL | -0.924
FFCNQCGHLFTQKGNLLRHIKL | 1.01
LGCPICGFRCTQKGNLLRHIKL | 1.14
FHCNICGALFTQKGNLLRHIKL | -0.177
